In PubChem BioAssay AID624296 (National Center for Advancing Translational Sciences (NCATS), 2012):
The campaign covered roughly 350,000 compounds. About 9,900 (2.8%) were called active. Inconclusive results, whose numbers are uncertain, are shown with a selection of clear calls. The call rests on the fitted dose curve; in most records, active means well fitted activation curve with a large enough effect; inconclusive means small, poorly fitted or top-dose-only effect; inactive means no such curve, though single readings can be large or run the other way. No potency is given beside an inconclusive call; the fits are too rough.
Potency means the concentration at half of the fitted maximal effect; tags describe the fitted curve by direction and shape.

Experiment: A quantitative high throughput screen for small molecules that induce DNA re-replication in MCF 10a normal breast cells. Further: nearly all actives have a fitted effect of over 50% in size. On activity, positive = re-replication: % of control where 0% means no effect.
Conditions: MCF 10A DNA re-replication, Hoechst nuclear intensity, 48 h; activity, positive = re-replication: at 46.1 µM (top of the series)
In the case of `COC(=O)C1=NNC2(c3ccc(C)cc3)C(=O)N(c3ccc(C)cc3)C(=O)C12` (stereo not drawn), the “activity, positive = re-replication” value is reported as inactive: -0.647%.
With `CC(C)c1cccc(C2=CC(=O)C[C@H](c3ccc4c(c3)OCO4)C2)c1` the Potency was inconclusive [activator, single point].
In the case of `Cc1c(C)n(CCc2ccccc2)c2ncnc(NCCCN(C)C)c12`, the Potency is reported as inconclusive [activator, partial curve].
With `COc1ccccc1NC(=O)C1=C(C)Nc2nnnn2C1c1ccccc1OC` (stereo not drawn) the “activity, positive = re-replication” value was inactive: -4.2%.
With `CSCCC(NC(=O)c1ccccc1)C(=O)N1CCN(C(c2ccccc2)c2ccccc2)CC1` (stereo not drawn) the Potency was inconclusive [activator, partial curve, poor fit].
For `CCCC(=O)Nc1cccc(-c2nc3cc(C)c(C)cc3o2)c1`, the Potency was inconclusive [activator, single point].
For `C#CCSc1nc(N)c2c(n1)OC(N)=C(C#N)C2c1cccnc1` (stereo not drawn), the Potency was inconclusive [activator, single point].
For `COc1cc(C(=O)N2CCN(c3ccccn3)CC2)cc(OC)c1OC`, the “activity, positive = re-replication” value was inactive: -8.07%.
In the case of `N#Cc1ccc(Oc2cccc3cccnc23)c([N+](=O)[O-])c1`, the Potency is reported as inconclusive [activator, single point].
For `O=C(Nc1c2c(nn1-c1ccc(F)cc1)CS(=O)C2)c1ccc2c(c1)OCO2` (stereo not drawn), the “activity, positive = re-replication” value was inactive: 2.17%.
For `COC(=O)CC/C(=N/Nc1ccc(Cl)c(Cl)c1)C(=O)OC`, the Potency was inconclusive [activator, single point].
For `COc1cc(-c2cc(C(=O)Nc3ccc(S(N)(=O)=O)cc3)c3ccccc3n2)cc(OC)c1OC`, the Potency was inconclusive [activator, partial curve, poor fit].
For `CCOC(=O)C1CCN(c2c([N+](=O)[O-])c(C(Cl)Cl)nn2-c2ccccc2)CC1`, the Potency was inconclusive [activator, partial curve, poor fit].
With `Cn1c(=O)[nH]c(=O)c2c1nc(N1CCCC1)n2CCCSc1nnnn1-c1ccccc1` the Potency was inconclusive [activator, single point].
With `CC(=O)N1c2ccc(S(=O)(=O)NCC3CCC(C(=O)NC4CCC(C)CC4)CC3)cc2CC1C` (stereo not drawn) the Potency was inconclusive [activator, partial curve, poor fit].
In the case of `CCCCn1c(N)c(N(CCC(C)C)C(=O)c2cccc(-n3cnnn3)c2)c(=O)[nH]c1=O`, the “activity, positive = re-replication” value is reported as inactive: -35.3%.
With `O=C(Nc1cnccn1)c1cccc(C(F)(F)F)c1` the “activity, positive = re-replication” value was inactive: -9.53%.
With `CCN(Cc1ccccc1)c1ccc(/C=N/NS(=O)(=O)c2ccc(C)c([N+](=O)[O-])c2)cc1` the “activity, positive = re-replication” value was inactive: 22.6%.
With `Cc1cccc(N(C)C(=O)c2cnn(-c3ccccc3)c2C)c1` the Potency was inconclusive [activator, single point].
In the case of `CCC1=C(OC(=O)N(CC)CC)N2C(=O)OC(=NCC(=O)OC)[C@]2(Cc2ccccc2)[C@H]2C1=CC[C@H]1C(=O)NC(=O)[C@H]12`, the Potency is reported as inconclusive [activator, full curve, poor fit].
In the case of `Cc1ccsc1C(=O)N(C)CC(=O)Nc1ccccc1Br`, the “activity, positive = re-replication” value is reported as inactive: -1.62%.
With `Cc1cc(NC(=O)C(C)SCC(=O)OCC(=O)N(C)c2ccccc2)no1` (stereo not drawn) the “activity, positive = re-replication” value was inactive: 0.45%.
For `CN1CCC(=NNC(=O)c2cc(-c3ccc(Cl)cc3)n[nH]2)CC1`, the Potency was active: 18.4 µM.
For `CC(C)CN(C#N)c1nc(N2CCOCC2)nc(N2CCOCC2)n1`, the “activity, positive = re-replication” value was inactive: 26.9%.
With `O=S(=O)(CC(CN1CCOCC1)N1CCOCC1)c1ccccc1` (stereo not drawn) the “activity, positive = re-replication” value was inactive: -9.72%.
For `C=CCN(c1ccccc1)S(=O)(=O)c1ccc2c(c1)oc(=O)n2C`, the Potency was inconclusive [activator, single point].
For `CCn1c(=S)sc2c(=O)n(CC(=O)Nc3cccc(Cl)c3)c(C)nc21`, the Potency was inconclusive [activator, single point].
For `COc1ccc2ccccc2c1/C=N\n1c(C)cc(C)c(C(N)=O)c1=O`, the Potency was inconclusive [activator, partial curve].
For `Clc1cccc(OCCCCCN2CCOCC2)c1`, the Potency was inconclusive [activator, partial curve, poor fit].
For `CC(=O)Nc1cc(C(=O)N2CCN(C)CC2)ccc1S(=O)(=O)c1ccc(C)cc1`, the “activity, positive = re-replication” value was inactive: 1.06%.
In the case of `COc1ccccc1Cc1nc(-c2ccc(C)cc2)no1`, the Potency is reported as active: 5.8 µM.
In the case of `COc1c(C)cc(Br)cc1C(=O)Nc1cccc(NC(=O)c2ccco2)c1`, the Potency is reported as inconclusive [activator, partial curve].
With `O=C1COc2ccc(C(=O)/C=C/c3ccccc3)cc2N1` the Potency was inconclusive [activator, full curve].
With `CCC1CCCCN1S(=O)(=O)c1ccccc1[N+](=O)[O-]` (stereo not drawn) the Potency was inconclusive [activator, single point].
In the case of `CC(C)(C)C1CCc2c(C(=O)NNC(=O)CCC(=O)O)csc2C1` (stereo not drawn), the Potency is reported as inconclusive [activator, single point].
With `CCOc1cc(/C=C2/SC(=S)NC2=O)ccc1OC(=O)c1ccco1` the Potency was inconclusive [activator, partial curve, poor fit].
With `CC(=O)Nc1cc(NC(C)=O)cc(C(=O)OCC(=O)N2CC(C)OC(C)C2)c1` (stereo not drawn) the “activity, positive = re-replication” value was inactive: 2.5%.
With `CCOC(=O)c1c(NC(=S)NC)sc2c1CC(C)(C)SC2` the Potency was inconclusive [activator, single point].
In the case of `CCOC(=O)C1CCCN(c2c(NCCCN(C)Cc3ccccc3)c(=O)c2=O)C1` (stereo not drawn), the Potency is reported as inconclusive [activator, single point].
In the case of `COC(=O)C1=C(C(=O)OC)[C@@H]2N(C)c3ccc(OC)cc3[C@@]23C[C@@H](C(=O)OC)N(C(=O)NCCBr)C3=N1`, the Potency is reported as inconclusive [activator, full curve, poor fit].
With `CCOc1cc(/C=N/NC(=O)c2ccc(N(C)S(=O)(=O)c3ccccc3)cc2)ccc1OC` the “activity, positive = re-replication” value was inactive: 2.06%.
With `N/C(=N\c1nc2ccccc2o1)NC(=O)c1ccccc1NC(=O)c1ccccc1` the Potency was inconclusive [activator, partial curve, poor fit].
With `Cc1ccc(CNC(=O)CCC(=O)Nc2nnc(C)s2)cc1` the Potency was inconclusive [activator, partial curve, poor fit].
For `CCOCCCNC(=O)/C(C#N)=C/c1cc(C)c(O)c(C)c1`, the Potency was active: 23.1 µM.
In the case of `CCn1cc(S(=O)(=O)c2ccc(Cl)cc2)c(=O)c2cc(OC)ccc21`, the “activity, positive = re-replication” value is reported as inactive: 4.46%.
For `Cc1nc2ccccc2n1CC(O)Cn1c2ccccc2c2ccccc21` (stereo not drawn), the Potency was inconclusive [activator, single point].
For `O=C(CSc1nnc(-c2cc(-c3cccs3)nc3ccccc23)o1)NC1CCCCC1`, the Potency was inconclusive [activator, full curve].
In the case of `C/C(=N/N1CCN(c2ccccc2)CC1)c1cccc([N+](=O)[O-])c1`, the Potency is reported as inconclusive [activator, single point].
With `COc1ccc2c(c1)CCCC(Br)C2=O` (stereo not drawn) the Potency was inconclusive [activator, single point].
With `COc1ccc(-c2cc(C(F)(F)F)nc(S(C)(=O)=O)n2)cc1OC` the Potency was inconclusive [activator, single point].
With `O=C(/C=C/c1cccs1)N1CCC2(CC1)Oc1ccc(F)cc1C(=O)C21CC(c2ccccc2)=NO1` (stereo not drawn) the Potency was inconclusive [activator, single point].
With `O=C(COC(=O)Cc1cccs1)NCC(=O)Nc1ccc(F)cc1` the “activity, positive = re-replication” value was inactive: -2.78%.
In the case of `S=C(NCc1ccc2c(c1)OCO2)Nc1ccc(-c2nc3ccccc3[nH]2)cc1`, the Potency is reported as inconclusive [activator, single point].
For `COc1ccc([C@H]2CC(=O)C=C(c3cccc4c3Oc3ccccc3S4)C2)cc1`, the Potency was inconclusive [activator, full curve, poor fit].
In the case of `NC(=S)NN=C1C2CC3CC(C2)CC1C3`, the “activity, positive = re-replication” value is reported as inactive: 19.2%.
In the case of `COc1ccccc1CNC(=O)CCNS(=O)(=O)/C=C/c1ccc(C)cc1`, the “activity, positive = re-replication” value is reported as inactive: 0.927%.
In the case of `NC(=O)CC[C@H](NC(=O)c1ccc(Cl)cc1)C(=O)NNC(=O)COc1cccc(Br)c1`, the “activity, positive = re-replication” value is reported as inactive: -4.77%.
In the case of `C#CCSc1nccc(-c2nn(-c3ccc(C)cc3)ccc2=O)n1`, the Potency is reported as inconclusive [activator, partial curve, poor fit].
With `Cc1ccc(C(=O)/C=C/c2ccc3ncccc3c2)cc1` the Potency was active: 18.4 µM.
In the case of `Cc1ccc(C)c(NC(=O)CN(C)C(=O)c2oc3c(Cl)cccc3c2C)c1`, the Potency is reported as inconclusive [activator, single point].
In the case of `Cc1[nH]c2ccccc2c1C(=O)C(=O)NCc1ccncc1`, the “activity, positive = re-replication” value is reported as inactive: -1.78%.
For `CCN(CC)c1ccc(C(=O)Nc2cccc(F)c2)cc1`, the Potency was inconclusive [activator, single point].
For `Cc1cc(Br)ccc1NC(=O)CNC(=O)CN(C)C1CCS(=O)(=O)C1` (stereo not drawn), the “activity, positive = re-replication” value was inactive: 1.13%.
With `O=C1Cc2c(-c3ccccc3)cc(-c3cccc(Cl)c3)nc2-c2ccccc2N1` the Potency was inconclusive [activator, full curve].
In the case of `Cc1sc(NC(=O)CSC2=NCCS2)nc1-c1ccccc1`, the Potency is reported as active: 8.91 µM.
For `COc1cccc(CNc2ncnc3cc(Cl)ccc23)c1`, the Potency was inconclusive [activator, partial curve, poor fit].
With `O=C(Nc1ccccc1N1CCCCC1)c1cccc(F)c1` the Potency was inconclusive [activator, partial curve, poor fit].
For `CC(C)OCCCn1c(=N)c(S(=O)(=O)c2ccccc2)cc2c(=O)n3ccccc3nc21`, the Potency was inconclusive [activator, single point].
